We go through 25 sequences from the supplement of paper PMC11417369.

The list shows a part of the results.

The test has as its system PfHDP1 homeodomain (GST-tagged). Put plainly: gcPBM binding intensity (ln(normalized median fluorescence intensity)); higher = stronger DNA binding. A digest of the protocol:
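Binding of GST-tagged P. falciparum DNA-binding domains, expressed in E. coli and used at about 25 μg on average, was carried out for 1 h in 1× PBS containing 1% milk, 0.2 mg/ml BSA, 0.5% salmon testes DNA and 0.03% Triton X-100. The target was an Agilent 4 × 180k array of primer-extended double-stranded 36-bp intergenic genomic probes plus negative controls, read with Alexa488 anti-GST antibody at 488 nm. Binding intensity is the highest Masliner-normalised natural-log median intensity across replicate spots of either probe orientation.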
Consider “ATAATTTGATGGTTAACACACATATATATTATATAT [CACACA_site2449]”, for which the “gcPBM binding intensity (ln)” value was 6.76. As for “TATGGATGTATTCATACATGCACACGTACATATTTA [TGCATGCA_site991]”, the figure is 7.74; as for “ATATATTATTATAACTGTACTTTTTTTGTGGTTAAT [XGTACX_site8266]”, 6.64; as for “TATGCGTATATATAAATACACACCAAATGTTAATAT [CACACA_site1713]”, 6.48. As for “CCACGTATAATATGTACACACACATAAATACAAAAA [CACACA_site4660]”, the figure is 6.67.

Regarding “AATTAAATTATAAGCACACACATATATATATATATA [CACACA_site3351]”, the “gcPBM binding intensity (ln)” value is 9.33.

Consider “TAAAAAATGTTATATACACACAGTATAAAAAAAAAT [CACACA_site7808]”, for which the “gcPBM binding intensity (ln)” value came to 6.65. As for “TATAAATATAAATACACACACATATATATTATATAT [CACACA_site4496]”, the figure is 6.63; as for “ACCTATTTCAAACACACACACACACTAGCAAACATA [CACACA_site4695]”, 7.26; as for “ATATATATATATATGTGTACATAATAACTTTGCTTA [XGTACX_site1255]”, 9.17. Under “TATATATATATATGTTGTACATATTTAAATGTTTAT [XGTACX_site5437]” stands 9.06; under “CTTATTTCCTTTTGTAGTACCTTATAATATATATAA [XGTACX_site8873]”, 7.12; under “GGGAAGTAGTAGTAATGTACTTATTTATTATGTGAC [XGTACX_site3985]”, 6.63. For the sequence “TTATATATTTTTTGCACACCAAAAAAGAGAATATTC [CACACA_site2730]”, the “gcPBM binding intensity (ln)” value is 10. Under “TTCTATTTGTAAAATTGTACAAAATAAATAACAAAA [XGTACX_site1007]” stands 6.59; under “TAATAATAGTACTCACATCAAAGTATTATTAAAAAT [TGCATGCA_negctrl_site496]”, 6.36. “GCATTTCTACTAAAAATACACACGATGATACAACGA [CACACA_site1756]”: the “gcPBM binding intensity (ln)” value is 6.63. For “AATAAATCTTTTTGTTGTACTAAAAATATTATTAGC [XGTACX_site3335]”, the “gcPBM binding intensity (ln)” value came to 5.92. As for “AAATTGTGTTCATCAGCACACACAACATCATGTAAT [CACACA_site8556]”, the figure is 6.49; as for “TTAATATATTATATTTGTACATATATATATATACAA [XGTACX_site4798]”, 6.46; as for “CGAAAGAAAAAAAGCACACACAGTTTTGAGCAATGA [CACACA_site2109]”, 8.82. As for “ACAAAAAAGTAAAAAGTGCATGTAAAATATAAGTAT [GTGCAC_site9438]”, the figure is 8.36.

With “TAAATATATAATTGTAGTACTGTTTTATGTTCATAA [XGTACX_site1020]”, the “gcPBM binding intensity (ln)” value is 6.17. Under “AAAAAATTTCAAATAACACACACTAATATATATATG [CACACA_site1426]” stands 6.69; under “AATATTCACATTTGTTGTACATTCCTAGTTATATAA [XGTACX_site491]”, 7.02.
